PubChem BioAssay AID1645882 (National Center for Advancing Translational Sciences (NCATS), 2021)
The campaign covered roughly 16,000 compounds. About 120 (0.75%) were called active. Roughly 4% stayed inconclusive and do not appear here. The call rests on the fitted dose curve; in most records, active means well fitted inhibition curve with a large enough effect; inconclusive means small, poorly fitted or top-dose-only effect; inactive means no such curve, though single readings can be large or run the other way. This is one part of the list.

target: Rap guanine nucleotide exchange factor 3 (Homo sapiens) (UniProt O95398); assay: Validation qHTS for antagonist of cAMP-regulated guanine nucleotide exchange factor 3 (EPAC1); conditions: EPAC1 Rap1B-BODIPY-GDP exchange, fluorescence; series mostly up to 150 µM; activity change, negative = inhibition: at the top concentration;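 further: plate controls were DMSO for no effect and ATA control for full effect; nearly all actives have a fitted effect of over 75% in size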
Sequence of UniProt O95398 (O95398 whole entry, looked up): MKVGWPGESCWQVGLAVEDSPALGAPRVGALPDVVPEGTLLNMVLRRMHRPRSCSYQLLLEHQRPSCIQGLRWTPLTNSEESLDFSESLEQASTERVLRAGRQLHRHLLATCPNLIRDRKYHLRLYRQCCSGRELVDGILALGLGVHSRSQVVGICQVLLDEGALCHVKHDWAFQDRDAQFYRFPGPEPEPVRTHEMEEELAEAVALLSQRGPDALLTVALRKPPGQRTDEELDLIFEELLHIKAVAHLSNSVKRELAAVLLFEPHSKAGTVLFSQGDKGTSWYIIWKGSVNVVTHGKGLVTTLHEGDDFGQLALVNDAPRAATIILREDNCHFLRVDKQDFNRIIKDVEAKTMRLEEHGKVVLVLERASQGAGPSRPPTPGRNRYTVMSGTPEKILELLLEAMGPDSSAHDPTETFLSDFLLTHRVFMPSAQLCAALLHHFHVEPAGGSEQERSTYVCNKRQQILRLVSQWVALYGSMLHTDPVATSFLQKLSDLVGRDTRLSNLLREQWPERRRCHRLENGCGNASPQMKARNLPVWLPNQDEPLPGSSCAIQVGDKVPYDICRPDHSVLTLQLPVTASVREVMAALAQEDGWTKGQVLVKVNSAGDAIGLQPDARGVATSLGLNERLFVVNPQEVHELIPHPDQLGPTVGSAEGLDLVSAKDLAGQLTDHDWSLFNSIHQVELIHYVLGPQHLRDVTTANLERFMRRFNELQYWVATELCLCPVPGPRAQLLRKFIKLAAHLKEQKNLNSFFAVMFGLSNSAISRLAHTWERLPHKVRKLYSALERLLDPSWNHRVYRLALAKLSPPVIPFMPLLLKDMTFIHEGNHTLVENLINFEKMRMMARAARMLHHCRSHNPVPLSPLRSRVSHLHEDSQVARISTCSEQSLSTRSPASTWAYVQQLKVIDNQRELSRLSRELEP
How it was run: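 Nucleotide exchange followed as fluorescence loss when BODIPY-GDP leaves Rap1B (480 nm excitation, 540 nm emission), read at 5 min intervals over 30 min. Reaction: 100 nM EPAC1, 250 nM RAP1B-BODIPY-GDP, 50 uM GDP; ATA and DMSO define normalization.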

Activity change, negative = inhibition, inactive:
CC(O)CO (stereo unspecified) 13.5%, O=c1[nH]cnc2c1nc(Cl)n2C1OC(CO)C(O)C1O (stereo unspecified) 8.98%, CCC1CN(CCNC(=O)c2ccc(N3CCOCC3)cc2)Cc2cc(OC)ccc2O1 (stereo unspecified) -8.45%, COc1ccc(NC(=O)N2CC3(CCN(C(=O)c4cc(C(F)(F)F)cc(C(F)(F)F)c4)CC3)C2)cc1 19.1%, O=C(C1CCCCC1)N1CC(=O)N2CCc3ccccc3C2C1 (stereo unspecified), C[C@@H]1CCC(=O)N(C[C@@H](C)CC#N)CC1 2.86%, C=CS(=O)(=O)N(Cc1ccccc1)[C@H](CO)CC(C)C -13.1%, COc1ccc(C(=O)N2CCC3(CC2)c2ccccc2[C@@H](NC(=O)c2ccccn2)[C@@H]3OC)c(O)c1 15.8%, CN1CCN(c2ncc3ncc(=O)n(Cc4ccc(F)cc4)c3n2)CC1 6.59%, O=C(c1cccc(F)c1)N1CCC[C@@]2(CCN(c3ccccn3)C2)C1 7.64%, Cc1cnc(-n2ncc(C(=O)NCCCc3ccncc3)c2C)nc1-c1ccc(F)cc1 -9.07%, C(=C\c1ccccc1)/CN1CCN(C(c2ccccc2)c2ccccc2)CC1, Cn1c(=O)[nH]c(=O)c2[nH]cnc21 -5.27%, Nc1nc2c(ncn2[C@@H]2O[C@H](COP(=O)(O)OP(=O)(O)OP(=O)(O)O)[C@@H](O)C2O)c(=O)[nH]1 (stereo partly specified) 2.21%, CCOC(=O)C1CCCN(C(=O)c2cnn(-c3nccc(-c4cc(C)sc4C)n3)c2C)C1 (stereo unspecified) 5.65%, O=C(O)[C@H](O)c1ccccc1 10.3%, O=C(c1ccc(F)c(F)c1)N1CCOc2ccc(CN3CCN(CCO)CC3)cc2C1 9.34%, COc1cc(C(=O)N(Cc2cc3ccc(C)cc3nc2N(C)C)C2CC2)cc(OC)c1OC 0.714%, COc1ccc2c(c1OC)C(=O)O[C@H]2C1c2c(cc3c(c2OC)OCO3)CCN1C (stereo partly specified), NC(CCC(=O)NC(CCSC(CC(=O)O)C(=O)O)C(=O)NCC(=O)O)C(=O)O (stereo unspecified) 16.9%, O=c1c(O)c(-c2ccc(O)cc2)oc2cc(O)ccc12 -7.82%, CC(C)CN1CCC(=O)N(CCSc2ccccc2)CC1 13.2%, CO[C@@]1(NC(=O)Cc2cccs2)C(=O)N2C(C(=O)O)=C(COC(N)=O)CSC21 (stereo partly specified) 17.7%, Cc1noc(C)c1-c1cncnc1N1CCN(C)CC1 20.1%, C/C=C(/C)C(=O)OC1Cc2c(ccc3ccc(=O)oc23)OC1(C)C (stereo unspecified) 13.7%, CC[C@@H]1/C=C(\C)C[C@H](C)C[C@H](OC)[C@H]2O[C@@](O)(C(=O)C(=O)N3CCCC[C@H]3C(=O)O[C@H](/C(C)=C/[C@@H]3CC[C@@H](Cl)[C@H](OC)C3)[C@H](C)[C@@H](O)CC1=O)[C@H](C)C[C@@H]2OC 15.5%, CN(C)c1nc(CN2CCCCC2c2cccnc2)nc2ccccc12 (stereo unspecified) 12.8%, COc1ccc(C(=O)N2CCC[C@@]3(CCN(Cc4ccccc4)C3)C2)cc1 14.8%, O=C1[C@H](Cc2ccccc2)NC/C=C\C[C@H](c2ccc(Cl)cc2)N1Cc1ccc(Cl)cc1 -14.2%, C[C@@](N)(Cc1ccc(O)c(O)c1)C(=O)O 23.5%, NC(N)=NC(N)=Nc1cccc(Cl)c1, C[C@H]1O[C@@H](O[C@H]2[C@@H](O)C[C@H](O[C@H]3[C@@H](O)C[C@H](O[C@H]4CC[C@@]5(C)[C@H](CC[C@@H]6[C@@H]5C[C@@H](O)[C@]5(C)[C@@H](C7=CC(=O)OC7)CC[C@]65O)C4)O[C@@H]3C)O[C@@H]2C)C[C@H](O)[C@@H]1O, CN1CCN(C2=Nc3cc(F)ccc3Cc3ccccc32)CC1, O=P(O)(O)CP(=O)(O)O 11.5%, CSc1ccccc1N1CCN(CCCCCC(=O)NC2CCCc3ccccc32)CC1 (stereo unspecified) -8.66% [at 75.8 µM], Cc1cnc(CNc2ncncc2-c2c(C)noc2C)cn1 2%, Clc1cccc[n+]1CCc1ccccc1 11.6%, CC(=O)O[C@@]1(C(C)=O)CCC2C3C=C(Cl)C4=CC(=O)CC[C@]4(C)C3CC[C@]21C (stereo partly specified) -2.13%, O=S(=O)(c1ccccc1)N1CCC2(CCCN(c3ccncc3)C2)CC1 6.28%, CC(=O)c1ccc(F)c(-c2cc(C)cc3c2OC(CNC(=O)c2csc(C)n2)C3)c1 (stereo unspecified) -8.71%, c1ccc2[nH]ccc2c1 3.36%, Cc1ccc2nc(-c3ccccc3C)c(CN(CC3CCCO3)C(=O)c3cccs3)cc2c1 (stereo unspecified) -10.1%, O=C(N[C@@H]1CCC(=O)N(CC[C@H](Sc2ccc(Br)cc2)c2ccccc2)CC1)OCc1ccccc1 0.337%, CC(=O)Oc1cc2c(c(C)c1OC(C)=O)CC=C1[C@]3(C)CC[C@]4(C)CC[C@@](C)(C(=O)O)CC4[C@]3(C)CC[C@]12C (stereo partly specified) 3.72%, O=C(OCC(O)CO)c1ccccc1Nc1ccnc2cc(Cl)ccc12 (stereo unspecified), CC(=O)C[C@H]1c2cc(C(F)(F)F)ccc2S(=O)(=O)N1Cc1ccccc1 -8.21%, O=C(NCc1cccnc1)[C@@H]1CC=C[C@@H]2CCN(Cc3ccc(Cl)c(Cl)c3)C(=O)[C@@H]21 0.262%, CCCC1OC2CC3C4CCC5=CC(=O)C=CC5(C)C4C(O)CC3(C)[C@]2(C(=O)CO)O1 (stereo partly specified) -5.21%, CCNc1ncc2nc(-c3cc(F)cc(F)c3)c(=O)n(C[C@H]3CCCO3)c2n1 2.14%, COc1cc(N)c(Cl)cc1C(=O)OCCCN1CCCCC1 4.94%, COc1ccccc1CNc1ccnc(-c2ccccc2OC)n1 -19.7%, CC(C(=O)O)c1ccc(-c2ccccc2)c(F)c1 (stereo unspecified), N=C(N)c1ccc(OCCCOc2ccc(C(=N)N)cc2Br)c(Br)c1 39%, O=c1c(-c2ccc(F)cc2)nc2cnc(Oc3ccccc3)nc2n1Cc1cccs1 15.5%, C=C1C(C2(C)C=CC(=O)C(C)(C)C2CC(=O)OC)CC[C@@]2(C)C(c3ccoc3)OC(=O)C3OC132 (stereo partly specified) -4.03%, CN(C)CC(C)(O)c1ccc2c(c1)CN(C(=O)c1ccc(-n3cccn3)cc1)CCO2 (stereo unspecified) 13.3%, O=C(c1cnccn1)N1CCC2(CC1)CCN(c1ccccn1)CC2 10.1%, COC(=O)C1CCN(Cc2ccc3c(c2)CN(C(=O)c2cc(C)nc(C)n2)CCO3)CC1 7.35%, COc1cc2c(N3CCN(C(=O)Nc4ccc(OC(C)C)cc4)CC3)ncnc2cc1OCCCN1CCCCC1 12.9%, CCCN1CCC(=O)N(CCSc2ccccc2)CC1 12.6%, NC(=O)c1cn(Cc2c(F)cccc2F)nn1, Cc1ccnc2c(N)cccc12 26.9%, Cc1cc(O)c2c(c1)C(=O)c1cccc(O)c1C2=O, O=S1(=O)CCO[C@H]2Cc3ccccc3[C@H]2N1Cc1ccc(F)cc1 -11.1%, c1csc(CNc2nc(CN3CCCC(c4nc5ccccc5o4)C3)nc3ccccc23)c1 (stereo unspecified) 10.8%, Cc1noc(C)c1-c1cc(N2CCNCC2)ncn1 -16.8%, NC(=O)c1ccc[n+]([C@@H]2OC(COP(=O)([O-])OP(=O)(O)OCC3OC(n4cnc5c(N)ncnc54)C(OP(=O)(O)O)C3O)C(O)C2O)c1 (stereo partly specified) -1.32%, COc1cccc(-c2nc(N(C)Cc3ccco3)c3ccccc3n2)c1 -18.3%, COc1ccc(C2(C#N)CCC(C(=O)O)CC2)cc1OC1CCCC1 (stereo unspecified) 14.5%, Cc1c(C(=O)NCC2COCCO2)cnn1-c1ncc2c(n1)-c1ccccc1CC2 (stereo unspecified) 4.89%, Cc1noc(C)c1-c1nc(Nc2ccccc2)c2ccccc2n1 10.9%, C[C@H](CCC(=O)O)[C@H]1CC[C@H]2[C@@H]3[C@H](O)C[C@@H]4C[C@H](O)CC[C@]4(C)[C@H]3C[C@H](O)[C@]12C 9.24%, O=c1c(O)c(-c2cccc(O)c2)oc2ccccc12 4.73%, O=c1ccc2cc(O)c(O)cc2o1 3.93%, COc1ccc(CCN(C)CCCN2CCc3cc(OC)c(OC)cc3CC2=O)cc1OC 17.2%, Cc1cn(C2OC[C@@H](O)[C@@H]2CO)c(=O)[nH]c1=O (stereo partly specified) 2.55%, C=C1C(CCl)(CCl)C2(Cl)C(Cl)C(Cl)C1(Cl)C2(Cl)Cl (stereo unspecified) 7.12%, CC(C)c1cc2c(cc1S(=O)(=O)O)[C@@]1(C)CCC[C@@](C)(C(=O)O)[C@@H]1CC2 19.8%, CC(C)CN1CCC(=O)N([C@H](CN=[N+]=[N-])Cc2ccccc2)CC1 1.51%, N#Cc1cccc(NC(=O)N2CCCC3(CCN(C(=O)c4ccncc4)CC3)C2)c1 21.9%, COc1ccc(CNc2ncnc3ccc(-c4c(C)noc4C)cc23)c(OC)c1 -14.7%, FC(F)(F)c1ccccc1-c1cncnc1NCCc1cnc[nH]1 3.78%, COC(=O)c1cc(CNC(=O)c2ccc3ccccc3n2)cc(NC(=O)c2cccc(OC)c2)c1 6.6%, COc1ccc(NC(=O)[C@@H]2CC=C[C@@H]3CCN(Cc4ccccc4)C(=O)[C@@H]32)cc1 11.1%, COc1ccc(CNc2ncnc3ccc(-c4cccc(C#N)c4)cc23)c(OC)c1 -6.31%, CN(C)C(=O)C(CCN1CCC(O)(c2ccc(Cl)cc2)CC1)(c1ccccc1)c1ccccc1, O=C(c1ccccc1C(F)(F)F)N1CCOc2c(cc(-c3nc4ccccc4s3)cc2OC2CCOC2)C1 (stereo unspecified) 3.01%, COc1cccc(CNC(=O)c2cnn(-c3ncc4c(n3)-c3ccccc3CCC4)c2C)c1OC 12.6%, O=C(Nc1ccccc1)N1CCCC2(CCN(C(=O)c3ccco3)CC2)C1 19.1%, COc1ccccc1N1CCN(c2nc(CNC(=O)C3CCOC(C)(C)C3)nc3ccccc23)CC1 (stereo unspecified) -7.79%, NCC1OC(O[C@H]2[C@H](O)[C@@H](OC3C(O)C(N)CC(N)C3OC3OC(CO)C(O)C(O)C3N)O[C@@H]2CO)C(N)C(O)C1O (stereo partly specified) 11.4% [at 75.8 µM], COc1cc(=O)n2c(c1C(=O)NC(C)c1ccco1)CCN(CC=C(C)C)CC2 (stereo unspecified) 7.49%, c1nc(N2CCOCC2)c2cc(-c3ccoc3)ccc2n1 3.27%, COc1cccc(Cn2c(=O)c(-c3cccs3)nc3cncnc32)c1 4.2%, CC[N+](CC)(CC)CCOc1ccc(/C=C/c2ccccc2)cc1, Cc1ccccc1C(=O)Nc1ccc(C(=O)N2CCCC(O)c3cc(Cl)ccc32)c(C)c1 (stereo unspecified) 10.2%
